The record followed here is PubChem BioAssay AID1347073 (National Center for Advancing Translational Sciences (NCATS), 2019).

Hit rate of the full screen: of about 45,000 compounds, about 200 (0.44%) were called active. Roughly 7% stayed inconclusive and do not appear here. Calls come from the whole dose curve; as a rule, active = well fitted activation curve with a large enough effect; inconclusive = small, poorly fitted or top-dose-only effect; inactive = no such curve, though single readings can be large or run the other way. Some of the results follow.

The nature of this assay: qHTS of TDP-43 Inhibitors: NCGC Sytravon Library Screen. Note: 0% is about no effect; nearly all actives have a fitted effect of over 55% in size. Conditions: yeast TDP-43 toxicity rescue, BacTiter-Glo growth, 24 h; series mostly up to 46.1 µM; growth rescue (activation): at the top concentration. The method, boiled down: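 TDP-43-expressing yeast, pregrown in raffinose, seeded at OD600 0.02 in galactose medium with compound for 24 hr at 30 deg C. Growth read by BacTiter-Glo luminescence, so rescue of toxicity appears as activation.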
Regarding `CC(C)Cn1c(N)c(C(=O)COC(=O)c2ccc(F)cc2)c(=O)n(C)c1=O`, the “growth rescue (activation)” value was inactive: 21.3%. Regarding `O=C(NCc1cccnc1)C(=O)Nc1ccc([N+](=O)[O-])cc1`, the “growth rescue (activation)” value is inactive: 6.93%. The value for `O=C(N/N=C/c1ccccc1O)NC12CC3CC(CC(C3)C1)C2` was inactive: 1.09%; that for `Cc1nc2nc(C)c(NS(=O)(=O)c3ccc(C4CCCCC4)cc3)c(=O)n2[nH]1` was inactive: 15.2%.

For `Cc1ccc(CN2CCN(Cc3ccccn3)CC2CCO)cc1` (centres undefined), the “growth rescue (activation)” value is inactive: 11.7%. Take `CC(=O)c1ccc(N2Cc3ccccc3/C2=N\C(=O)Nc2ccccc2)cc1`: the “growth rescue (activation)” value was inactive: -27.1%. Then `CCOC(=O)/C(=N\Nc1cc(Cl)ccc1Cl)N1CCOCC1`, with inactive: -8.84%; and `O=C(O)c1cccnc1-c1ncccc1C(=O)O`, with inactive: 27.3%.

Consider `O=C(O)/C=C/C(=O)c1ccc(O)cc1`, for which the “growth rescue (activation)” value was inactive: -41.5%.

Turning to `Cc1ccc(-n2c([S-])c(C(=O)NC(C)c3ccccc3)[n+]3ccccc23)cc1` (centres undefined), the “growth rescue (activation)” value was inactive: 9.72%. The value for `CN(C)S(=O)(=O)c1cc(NC(=O)c2cc(=O)c3ccccc3o2)ccc1Cl` was inactive: -2.37%; that for `CCOC(=O)C1=C(CC)Nc2ccccc2N/C1=N\S(=O)(=O)c1ccc(C(=O)OCC)cc1` was inactive: 6.12%. Then `CC(=O)c1ccc(NC(=S)Nc2ccc3[nH]c(=O)[nH]c3c2)cc1`, with inactive: 9.24%; and `COc1ccc(C(=O)NC2CCN(C(=S)Nc3ccccc3C)CC2)cc1`, with inactive: 4.27%. The value for `Cc1cc(C)nc(NNC2=CC(=O)CC(C)(C)C2)n1` was inactive: -10.3%. As to `COC(=O)c1ccc(C)c(NC(=O)CCn2[nH]c(=O)ccc2=O)c1`, the “growth rescue (activation)” value was inactive: -2.3%. On to `CC1CCCN(c2c3c(nc4ccccc24)CCCC3)C1` (centres undefined), for which the “growth rescue (activation)” value is inactive: -0.496%. In the case of `O=C1Cc2ccccc2C(=O)N1c1ccccc1`, the “growth rescue (activation)” value was inactive: 3.44%. In the case of `COc1cc(NC(=O)c2ccc(OC)c([N+](=O)[O-])c2)ccc1NC(=O)c1ccco1`, the “growth rescue (activation)” value was inactive: -4.8%. For `COC(=O)c1sc(NC(=S)NC(=O)c2ccccc2F)nc1C`, the “growth rescue (activation)” value is inactive: -7.99%. The value for `Cc1ccc(C)c(NC(=O)Cc2csc(-c3ccccc3)n2)c1` was inactive: 14.8%; that for `CCC(=O)Nc1cccc(NC(=S)NC(=O)c2cccs2)c1` was inactive: 34.6%; that for `CCCC(=O)N1CCCC1(C)C(=O)N(C)Cc1cccc2ccccc12` (centres undefined) was inactive: 6.34%. The value for `Cc1ccc2[nH]c3c(=O)n4c(nc3c2c1)SCC4` was inactive: 13.1%; that for `CC(C)Oc1ccc(OCCn2c(=S)[nH]c3c(N)ncnc32)cc1` was inactive: -9.53%; that for `COc1cc(C(=O)NC(=S)Nc2nccs2)cc(OC)c1OC` was inactive: 10.6%.

On to `NNC(=O)CNC(c1ccccc1)c1cc(Br)ccc1NC(=O)c1cccc(Cl)c1` (centres undefined), for which the “growth rescue (activation)” value was inactive: 16.9%. For `CCOCCCNC(=O)c1ccc2c(c1)N=C(CC)c1cc(Br)ccc1S2`, the “growth rescue (activation)” value was inactive: 8.23%. For the compound `COCC(C)n1c(C)cc(C(=O)CSc2nnc(-c3ccco3)o2)c1C` (centres undefined), the “growth rescue (activation)” value is inactive: 22.4%.

For the compound `Cc1cc(C)c(NC(=O)CS(=O)CC(=O)N2CCN(c3cccc(C)c3C)CC2)c(C)c1` (centres undefined), the “growth rescue (activation)” value is inactive: 1.34%. For the compound `C/C(=N\N=C\c1ccc(N(C)C)cc1)c1cccc([N+](=O)[O-])c1`, the “growth rescue (activation)” value is inactive: -0.793%.

In the case of `COC(=O)CC(NC(=O)Nc1ccc(C)cc1)c1cccc([N+](=O)[O-])c1` (centres undefined), the “growth rescue (activation)” value is inactive: 0.254%. Then `COc1cc(SC)ccc1C(=O)N1CCN(Cc2ccccc2)CC1`, with inactive: 0.293%; and `CC(=O)CSc1cc(C)nc2c(-c3ccccc3)c(C)nn12`, with inactive: -6.2%. As to `CC(=O)Nc1ccc(NC(=O)CCCSc2nc3ccccc3[nH]2)cc1`, the “growth rescue (activation)” value was inactive: -11.7%. For `Cc1cc(SCC(=O)N/N=C/c2ccco2)nc2ccccc12`, the “growth rescue (activation)” value was inactive: 27.2%. The value for `CNC(=S)N(C1=NCC(c2ccc([N+](=O)[O-])cc2)S1)c1ccccc1` (centres undefined) was inactive: 27.1%; that for `O=Cc1cnc(N2CCN(Cc3ccccc3)CC2)s1` was inactive: 3.44%; that for `COc1cccc(C(=O)NCCCNC(=O)c2ccco2)c1` was inactive: -5.28%. In the case of `O=C(CCS(=O)(=O)c1ccccc1)Nc1ccc(N2CCOCC2)cc1`, the “growth rescue (activation)” value is inactive: -11.2%.

Turning to `Cc1ccc(N/N=C(\C#N)C(=N)N2CCCCCC2)cc1`, the “growth rescue (activation)” value was inactive: 10.7%. For the compound `COCCNC(=O)c1ccccc1NC(=O)c1cccc([N+](=O)[O-])c1C`, the “growth rescue (activation)” value was inactive: 7.47%. Then `O=C(NCCCNC(=O)c1ccccn1)c1cccc(F)c1`, with inactive: 1.76%. Then `N#C/C(=C/c1ccc(OC(=O)c2ccc(Br)s2)cc1)c1nc2ccccc2[nH]1`, with inactive: -0.922%. The value for `CC(C)c1ccc(/C=N/NC(=O)c2cccc(S(=O)(=O)N3CCOCC3)c2)cc1` was inactive: 17.4%; that for `COc1ccc(/C=C/C(=O)O/N=C(\N)c2ccccn2)cc1OC` was inactive: 4.06%; that for `COc1ccccc1C1c2ccc3ccccc3c2Oc2ncn(CCN(C)C)c(=N)c21` (centres undefined) was inactive: 6.58%.

As for `Cc1ccc(C)c(N2C(=O)c3cc(N4CCOCC4)c([N+](=O)[O-])cc3C2=O)c1`, the “growth rescue (activation)” value is inactive: 5.06%. The value for `O=C(Cn1cc(C(=O)C2CC2)c2ccccc21)Nc1ccccc1Cl` was inactive: 8.03%.

Turning to `Cc1ccc(NC(=O)COc2ccc(C3SCCS3)cc2)cc1`, the “growth rescue (activation)” value is inactive: -17.9%.

In the case of `COC(=O)c1c(NC(=O)COC(=O)CNC(=O)c2ccco2)sc(C)c1C`, the “growth rescue (activation)” value was inactive: 25.9%.

For `O=C(C1COc2ccccc2O1)N1CCN(c2ccc([N+](=O)[O-])cc2)CC1` (centres undefined), the “growth rescue (activation)” value was inactive: 25.7%. The value for `CC(C)CN(CC(C)C)S(=O)(=O)N1CCC(C(=O)NCc2cccnc2)CC1` was inactive: -2.94%; that for `O=C(COC(=O)c1cccc(NS(=O)(=O)/C=C/c2ccccc2)c1)Nc1ccccc1OC(F)F` was inactive: -19.6%.
